Paper PMC7819943, “Rice protein-binding microarrays: a tool to detect cis-acting elements near promoter regions in rice”
The other results are listed elsewhere or left out.

molecular target: T1, OsWOX13 (Oryza sativa, UniProt Q5QMM3 1-267); assay: protein-binding microarray (RPBM); PBS, 2% BSA, 51.3 ng/ul salmon testes DNA, 50 uM zinc acetate, 200 nM TF, 25 C, 1 h; high values mean tight binding; details: protein: recombinant; tags: N-terminal polyhistidine and DsRed monomer fusion (pET32a); label: CyDye5-dUTP incorporated in the synthesized complementary strand; 3' TTTTT single-stranded linker to array surface; dsDNA, one strand shown
T1 sequence: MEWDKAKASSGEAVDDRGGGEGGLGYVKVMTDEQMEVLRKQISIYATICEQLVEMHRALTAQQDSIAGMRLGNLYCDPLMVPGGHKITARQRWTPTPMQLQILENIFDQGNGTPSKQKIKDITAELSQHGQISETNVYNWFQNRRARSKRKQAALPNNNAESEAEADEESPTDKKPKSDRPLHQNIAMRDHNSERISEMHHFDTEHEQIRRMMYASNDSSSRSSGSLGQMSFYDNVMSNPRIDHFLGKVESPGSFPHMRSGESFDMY
Procedure, shortened: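 In PBS with 2% BSA, salmon testes DNA and 50 µM zinc acetate, 200 nM protein was incubated on a custom Agilent array at 25 °C for 1 h and then washed off. The array had been made double-stranded by primer extension with Cy5-dUTP and blocked with 2% BSA. The proteins were transcription factors fused N-terminally to polyhistidine and DsRed, expressed in E. coli BL21-CodonPlus and purified on Ni–NTA. The binding signal is per-feature fluorescence intensity (arbitrary units) from an Axon 4000B scanner.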

| Sequence | binding signal |
| --- | --- |
| TACTCCAACTAATTGACTTGCTCATTGCATCCCAGTTAGGCGGAGTCACCTAGTGCAG | 35100 fluorescence intensity (a.u.) |
| TTAAATGATTATATTGCTTGTATTTTGTATAAGTTTATTTCGGAGTCACCTAGTGCAG | 11000 fluorescence intensity (a.u.) |
| CCTCCAATTAAGCAACCTCGGCTCACATTCACCACCAGCACGGAGTCACCTAGTGCAG | 8890 fluorescence intensity (a.u.) |
| TTTTCCTGTCTAAATTATCTCCAAACCGTAGGAATTTTCGCGGAGTCACCTAGTGCAG | 7500 fluorescence intensity (a.u.) |
| AATTCATTTATAGCCAATCTAATAGCTCGTTCATACAATACGGAGTCACCTAGTGCAG | 6520 fluorescence intensity (a.u.) |
| TGTAATTATAAACTTCAAATTATGTCTAGTCGCACCGATACGGAGTCACCTAGTGCAG | 22000 fluorescence intensity (a.u.) |
| ATTTTAATAGGAGATATTTATAATTGTTTACACACTTAAACGGAGTCACCTAGTGCAG | 3260 fluorescence intensity (a.u.) |
| GATACTAGTTAATTTATATTATATTATAAATAAGGTAATTCGGAGTCACCTAGTGCAG | 16700 fluorescence intensity (a.u.) |
| GGTCTGTCAGCCAACAATCACAGGAATCATTCCTAGCCACCGGAGTCACCTAGTGCAG | 10300 fluorescence intensity (a.u.) |
| ACAAACTTAAAATTAAATTAAAATTAAAGTGACTTAGGATCGGAGTCACCTAGTGCAG | 10700 fluorescence intensity (a.u.) |
| TTGGTTGATTAATACATAAGGTAGTCTTGGTTATATCCGACGGAGTCACCTAGTGCAG | 16600 fluorescence intensity (a.u.) |
| ATTTTGTCTATCATGACATTGATATCGACATCCACATTGACGGAGTCACCTAGTGCAG | 9630 fluorescence intensity (a.u.) |
| ATGAGTGACTAGTATATGCATGTTGATCGATCCTCCGGCGCGGAGTCACCTAGTGCAG | 3240 fluorescence intensity (a.u.) |
| TTTGTATTAATTGATGCTATATGGGCCAGAACATCAGGCACGGAGTCACCTAGTGCAG | 37300 fluorescence intensity (a.u.) |
| GATAAACTTGTGATTTTATATAACTTGAACAACAACGCTACGGAGTCACCTAGTGCAG | 6970 fluorescence intensity (a.u.) |
| ATCAATCATCGTCCACACATTGAAATGTGGACCTAGTGACCGGAGTCACCTAGTGCAG | 6220 fluorescence intensity (a.u.) |
| GATATTTAATTACAAGGCAAATATCACTTATTTAAGTTTTCGGAGTCACCTAGTGCAG | 4510 fluorescence intensity (a.u.) |
| TATTTTCTGTAATTTTATCCATGTTTTGTGTCTGAGTTTCCGGAGTCACCTAGTGCAG | 3810 fluorescence intensity (a.u.) |
| GACAGACAGACTATTGTGGAGTACAACCTGATAATCAGACCGGAGTCACCTAGTGCAG | 3610 fluorescence intensity (a.u.) |
| CCAATCAAACTTTTAATTTTAACGTTAACTAAACACGCCCCGGAGTCACCTAGTGCAG | 21500 fluorescence intensity (a.u.) |
| GATTAATTTACTAGACGAATCTTTTAAGCCTAATTACTCCCGGAGTCACCTAGTGCAG | 36100 fluorescence intensity (a.u.) |

| Sequence | binding signal |
| --- | --- |
| ACTATATTTGATTTAAACTCTTGTTTTCTACTCCTAATACCGGAGTCACCTAGTGCAG | 7860 fluorescence intensity (a.u.) |
| TCTAATTGGTTACAAACTTTATAGTTTTCATGGGAGGCCGCGGAGTCACCTAGTGCAG | 40500 fluorescence intensity (a.u.) |
| TAATAAATGTCTAATCAGAGCTGTTAGTAGGAAAGAGTAGCGGAGTCACCTAGTGCAG | 6500 fluorescence intensity (a.u.) |
| GTTAATTGACCCCGCCCGTTCTATCCCATCGTCGCATCGACGGAGTCACCTAGTGCAG | 30000 fluorescence intensity (a.u.) |
| ATTCCGATTGGCTGTGGTTGGTTTGATTTCCTGTTAAGCACGGAGTCACCTAGTGCAG | 10300 fluorescence intensity (a.u.) |
| TTTCTTATTATACAAACACTTGATTAGTCTACGATATTGGCGGAGTCACCTAGTGCAG | 4180 fluorescence intensity (a.u.) |
| TTTGGTCAATCAAGTCAAACTGCTTCAAATTTAACTAAGTCGGAGTCACCTAGTGCAG | 12700 fluorescence intensity (a.u.) |
| ATATCAAATCAATCGCTTCATGATGCCCCGACCTGTAAAACGGAGTCACCTAGTGCAG | 4350 fluorescence intensity (a.u.) |
| ATCAATTATTCAACTTGATTACATAGAACATGACCATCAACGGAGTCACCTAGTGCAG | 19700 fluorescence intensity (a.u.) |
| CCTAATTGCGCTATGATTTGACAATGTGATGCTATAGTAACGGAGTCACCTAGTGCAG | 39900 fluorescence intensity (a.u.) |
| TTCACTAATCAATCAACTTAATTTGCTCTGTCAATGTGCACGGAGTCACCTAGTGCAG | 61700 fluorescence intensity (a.u.) |
| CTGGCATAACTTTGACAAATTGAATGATATGCAATGGACTCGGAGTCACCTAGTGCAG | 21300 fluorescence intensity (a.u.) |
| AATTAATCATGTGCTATTGTACTCCGTTTTCCGTGCTGGACGGAGTCACCTAGTGCAG | 4130 fluorescence intensity (a.u.) |
| TTTTATCATTATTTCCTATCAATATGGCGTGATATCTTAACGGAGTCACCTAGTGCAG | 4650 fluorescence intensity (a.u.) |
| ACTCAATCTTATTAACTTAAATTGAACTTGAACAAGAGAACGGAGTCACCTAGTGCAG | 22000 fluorescence intensity (a.u.) |
| GCAGTGATTGCTATAGGTCGTGGCAGATGCGCCACTGCTCCGGAGTCACCTAGTGCAG | 5640 fluorescence intensity (a.u.) |
| ACGAGATGATTACGAGTGTGTTAGTCCCGTACTGCAGTATCGGAGTCACCTAGTGCAG | 25300 fluorescence intensity (a.u.) |
| AGATAATTCCTAAACATGAATACATGATCTTAGGCTATGCCGGAGTCACCTAGTGCAG | 6650 fluorescence intensity (a.u.) |
| TATGATTTGTGTTAGTTGACTTCTAATTTCTTGAGAGATACGGAGTCACCTAGTGCAG | 23000 fluorescence intensity (a.u.) |
| CATGATGAGCCGTGGACTGCCATTCTCCGGTGAAGCAATGCGGAGTCACCTAGTGCAG | 3880 fluorescence intensity (a.u.) |
| TAGCTTATTTCTGATGATTGCAATATATTTATTGTATATGCGGAGTCACCTAGTGCAG | 10600 fluorescence intensity (a.u.) |
